The values below come from US20190367580A1 (DUCENTIS BIOTHERAPEUTICS, published 2019).

Assay [1] concerns the target T1, Recombinant Human CD200R, His tagged (human, UniProt Q8TD46 25-266, limits assumed).
T1 construct: Bought reagent, soluble analyte in SPR; also called hCD200R; CD200 receptor; not shown: His tag
T1 sequence (looked up): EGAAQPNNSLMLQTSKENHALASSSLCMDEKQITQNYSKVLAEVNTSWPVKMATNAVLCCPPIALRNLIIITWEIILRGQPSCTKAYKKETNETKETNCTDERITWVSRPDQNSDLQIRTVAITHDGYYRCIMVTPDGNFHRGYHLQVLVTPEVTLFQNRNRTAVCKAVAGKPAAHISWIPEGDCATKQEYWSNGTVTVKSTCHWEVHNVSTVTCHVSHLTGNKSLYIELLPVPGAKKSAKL
The assay can be described thus: SPR (Biacore T200), CD200-Fc captured by anti-human Fc, CD200R-His as analyte, 1:1 Langmuir fit. Here is the method:
(§1) Anti-human Fc was covalently immobilized on a BIAcore CM5 sensor chip by amine coupling using a GE Healthcare kit following the manufacturer's instructions. Maximum immobilization target was set between 10000-15000 RU. […] Flow cell 1 was used as a reference, with no immobilized ligand, to permit deduction of non-specific binding to the chip surface. The Fc-ligands were diluted to 0.5 μg/mL in BIAcore running buffer (HBS-EP+: 10 mM HEPES buffered saline containing 2 mM EDTA and 0.05% surfactant P-20). In the final immobilization step, wild-type CD200-Fc, mutant CD200-Fc and un-related control protein (Herceptin/Trastuzumab) were passed over the chip (using flow cells 2, 3 and 4 respectively), for 120 seconds, at a concentration giving rise to a minimum of 250 response units (RU), followed by stabilization of the surface for 120 seconds in running buffer. The CD200-Fc capture procedure was repeated for every CD200R concentration.
(§2) Following capture of the Fc-tagged proteins, CD200R (at different concentrations) was flowed over the captured CD200-Fc and control proteins for 120 seconds (to observe association), followed by 120 seconds of running buffer (to observe dissociation). The chip surface was then regenerated using 10 mM Glycine-HCl (pH 2) for 30 seconds (30 μL/min flow rate) followed by stabilization of the surface for 60 seconds with BIAcore running buffer before the next cycle.

For assay [2], the target named is T1, Recombinant Human CD200R, His tagged. The assay can be described thus: SPR (Biacore T200), half-life calculated as 0.693/koff. Here is the method: as §1, §2
It is clear from comparison of the sensorgrams in FIG. 5 that K130Y binds to the CD200 receptor with greater affinity and a slower off rate than wild-type CD200-Fc. Table 2 records the on rates (M⁻¹s⁻¹), off rates (s⁻¹) and binding affinity values (nM) for wild-type and mutant CD200-Fc molecules: WT, K130Y, I131Y, G129I, F128R, N81K. Half-lives were calculated using the relationship t_{1/2} (s)=0.693/koff(s⁻¹).

B1: wild-type CD200-Fc (Fc fusion)
chain: QVQVVTQDEREQLYTPASLKCSLQNAQEALIVTWQKKKAVSPENMVTFSENHGVVIQPAYKDKINITQLGLQNSTITFWNITLEDEGCYMCLFNTFGFGKISGTACLTVYVQPIVSLHYKFSEDHLNITCSATARPAPMVFWKVPRSGIENSTVTLSHPNGTTSVTSILHIKDPKNQVGKEVICQVLHLGTVTDFKQTVNKGGGGSGGGGS[letters of human IgG1 Fc omitted]
notes: Made in ExpiCHO cells; also called WT; WT-CD200-Fc
Broadly, the Kd is the equilibrium constant for the complex coming apart. Usually koff stands for the rate constant with which the complex falls apart. As usually defined, the kon is the second-order rate constant of association. For the molecule B1, in assay [1], the Kd came to 111 nM, the koff came out at 0.027 s⁻¹ and the kon was found to be 240000 M⁻¹ s⁻¹. For the same molecule, the “t ½” value in assay [2] is 25.6 s.

B2: K130Y mutant CD200-Fc (Fc fusion)
chain: QVQVVTQDEREQLYTPASLKCSLQNAQEALIVTWQKKKAVSPENMVTFSENHGVVIQPAYKDKINITQLGLQNSTITFWNITLEDEGCYMCLFNTFGFGYISGTACLTVYVQPIVSLHYKFSEDHLNITCSATARPAPMVFWKVPRSGIENSTVTLSHPNGTTSVTSILHIKDPKNQVGKEVICQVLHLGTVTDFKQTVNKGGGGSGGGGS[letters of human IgG1 Fc omitted]
With B2, in assay [1], the Kd came to 8.07 nM, the koff came out at 0.0032 s⁻¹ and the kon came to 400000 M⁻¹ s⁻¹. Also, the “t ½” value in assay [2] was 217 s.

B3: F128R mutant CD200-Fc (Fc fusion)
chain: QVQVVTQDEREQLYTPASLKCSLQNAQEALIVTWQKKKAVSPENMVTFSENHGVVIQPAYKDKINITQLGLQNSTITFWNITLEDEGCYMCLFNTFGRGKISGTACLTVYVQPIVSLHYKFSEDHLNITCSATARPAPMVFWKVPRSGIENSTVTLSHPNGTTSVTSILHIKDPKNQVGKEVICQVLHLGTVTDFKQTVNKGGGGSGGGGS[letters of human IgG1 Fc omitted]
For B3, in assay [1], the Kd stood at 109 nM, the koff was found to be 0.018 s⁻¹ and the kon stood at 163000 M⁻¹ s⁻¹. In addition, the “t ½” value in assay [2] was 39.2 s.

B4: I131Y mutant CD200-Fc (Fc fusion)
chain: QVQVVTQDEREQLYTPASLKCSLQNAQEALIVTWQKKKAVSPENMVTFSENHGVVIQPAYKDKINITQLGLQNSTITFWNITLEDEGCYMCLFNTFGFGKYSGTACLTVYVQPIVSLHYKFSEDHLNITCSATARPAPMVFWKVPRSGIENSTVTLSHPNGTTSVTSILHIKDPKNQVGKEVICQVLHLGTVTDFKQTVNKGGGGSGGGGS[letters of human IgG1 Fc omitted]
Take B4: in assay [1], the Kd stood at 49 nM, the koff came to 0.0091 s⁻¹ and the kon was 180000 M⁻¹ s⁻¹. In addition, in assay [2], the “t ½” value was 76.6 s.

B5: G129I mutant CD200-Fc (Fc fusion)
chain: QVQVVTQDEREQLYTPASLKCSLQNAQEALIVTWQKKKAVSPENMVTFSENHGVVIQPAYKDKINITQLGLQNSTITFWNITLEDEGCYMCLFNTFGFIKISGTACLTVYVQPIVSLHYKFSEDHLNITCSATARPAPMVFWKVPRSGIENSTVTLSHPNGTTSVTSILHIKDPKNQVGKEVICQVLHLGTVTDFKQTVNKGGGGSGGGGS[letters of human IgG1 Fc omitted]
For B5, in assay [1], the Kd amounted to 108 nM and the koff was 0.017 s⁻¹. Besides, the “t ½” value in assay [2] is 40.8 s.

B6: N81K mutant CD200-Fc (Fc fusion)
chain: QVQVVTQDEREQLYTPASLKCSLQNAQEALIVTWQKKKAVSPENMVTFSEKHGVVIQPAYKDKINITQLGLQNSTITFWNITLEDEGCYMCLFNTFGFGKISGTACLTVYVQPIVSLHYKFSEDHLNITCSATARPAPMVFWKVPRSGIENSTVTLSHPNGTTSVTSILHIKDPKNQVGKEVICQVLHLGTVTDFKQTVNKGGGGSGGGGS[letters of human IgG1 Fc omitted]
B6: in assay [1], the Kd turned out to be 101 nM, the off-rate constant (koff) was determined as 0.021 s⁻¹ and the kon stood at 207000 M⁻¹ s⁻¹. In addition, in assay [2], the “t ½” value was 32.7 s.
